According to article PMC12136788:
The list shows a part of the results.

B1: chr9:136227202:136227203:+_ENSG00000148291_ENST00000371964|hu_mus|FALSE|FALSE (ssRNA)
RNA: GGGAGUUCUACAGUCCGACGAUCCUCUCUAAAGCUCUUCUCUUCUGAAUGCUCCGGCUUCUCAUCCUGUUGGUCUGUCAGAAAGUCUUCAGGAGUGUCAUCGUUCUUAGGCUUGCCUAGUUCUCUCUUUGUGAACAGCUCAGGCAACAGAGGAUUGAGCAUCA
B2: 14125765_14150144_1339_3pUTR_ENSG00000147862_ENST00000380959|human|control|control (ssRNA)
RNA: GGGAGUUCUACAGUCCGACGAUCCUUGAUCUCUUUCGUGCCAUGUUCGACUUCCAGCAGCUGGUGAACUUGGAGAGGGGUAAAAGUCUCCUGUAGGACUUGGUUCCAUAUUUUCAUCUAUGGAUAUAGUUUUGGGUCUUUUGCCAACAGAGGAUUGAGCAUCA
B3: chr4:57314706:57314707:+_ENSG00000128050_ENST00000264221|hu_mus|hu_hu_hu_mus_True|98_108 (ssRNA)
RNA: GGGAGUUCUACAGUCCGACGAUCCAGUAUUUCAAAUAUAGCCUGUGUGGCAUGACUCAUGAUGUCCACUUCAGUCUGCCCUAUAACAAGGCCAGCAAAACAGAAUUUUGCAGCAAUGAGUUGCUCCUCAGACCACUGUGGAUCCAACAGAGGAUUGAGCAUCA
B4: chr1:213186598:213186599:-_ENSG00000174606_ENST00000366962|hu_mus|motif|central (ssRNA)
RNA: GGGAGUUCUACAGUCCGACGAUCAAACUGCGUUCCAGACUCAAACAGAAAAGGUGGUCUACAGUUCAAUGAGAAAUGCCUGCGGCUGAAGUAUGGGUAAGGCGCACGGGAGUAAUGUCCUGGCCACCUCAGACAACUGGAAAUCAACAGAGGAUUGAGCAUCA
B5: chr5:128440902:128440903:+_ENSG00000066583_ENST00000173527|hu_mus|hu_hu_hu_mus_True|38_78 (ssRNA)
RNA: GGGAGUUCUACAGUCCGACGAUCUUGAACGGUGCUGCCAAGUCCUUUGGGGUAUUGUUCUGUUACAAUAACUGGAAUCCCUAAGAUCCGAGCUCCUUGCAACAAUCUCUGUCCCACACUAAUGAUGUCCCCAAAGUAUUUGAUCAACAGAGGAUUGAGCAUCA
B6: chr7:54825262:54825263:-_ENSG00000132432_ENST00000352861|hu_hu|hu_hu_hu_mus_False|58_78 (ssRNA)
RNA: GGGAGUUCUACAGUCCGACGAUCCUGCCGGCUGGGCUCCACAAACUGCAUUACCUGCAUGACUGCCGUUGGAUGGCACACCUAAAACGUAGAGACACGUAGCUCAGGAGAGAACCGAGCCCAACGGAACCGGAAGCUGGCAACCAACAGAGGAUUGAGCAUCA
B7: chr4:76721835:76721836:+_ENSG00000138768_ENST00000264904|hu_mus|hu_hu_hu_mus_True|1_8 (ssRNA)
RNA: GGGAGUUCUACAGUCCGACGAUCGUUUGGCUGGGGUUUCUGAGACGCUCUGGAAUAUAACUCAUGUUUGCUAAUAAAUCCUAGUUUCUCUAUGAAAUUCUCUUUGCCAAUCCUCUUCUCUAUUAGUGUUUUAGCUUCUCUUUCCAACAGAGGAUUGAGCAUCA
B8: chr12:39763582:39763583:-_ENSG00000139116_ENST00000544797|hu_mus|hu_hu_hu_mus_False|1_108 (ssRNA)
RNA: GGGAGUUCUACAGUCCGACGAUCCUCUAAGAAUUGGGCAUUCACUUUGAAUUCAGGAGGGGGCAGCCCGUUUUUAAUCGCUGAGGUCUUUUUCUCAUCAAUACUCUUGAACAGGUGUCUAACAGCACGAGAGAUGAUACCCAGCAACAGAGGAUUGAGCAUCA
B9: 134309471_134309591_2189_3pUTR_ENSG00000028839_ENST00000237264|human|control|control (ssRNA)
RNA: GGGAGUUCUACAGUCCGACGAUCGAACAUUGUGUUGGAAUAUUGUCCCCAUUAAGUUUCUCCUGAGAAGCUAAUUGGACUCUCCACUCAGCUUUAUUUCUAGGUAUAAUCACUGUUGGUUACACUAAACUCCUAAACCUAAAUCAACAGAGGAUUGAGCAUCA
B10: chr1:182792627:182792628:+_ENSMUSG00000038806_ENSMUST00000038091|mus_hu|FALSE|FALSE (ssRNA)
RNA: GGGAGUUCUACAGUCCGACGAUCGUCUGUAUUCACUACUCUCGCCCUCUGAGAACCACUGGGAAAUUUGGCUGCCAUCUCGACACCAUUGCUACCAAUUUUUGGAGCAUGGAAACCCAUUCCUGAAGUGCUUGGUGCUUCUUCCAACAGAGGAUUGAGCAUCA
B11: chr17:60770872:60770873:+_ENSG00000011028_ENST00000303375|hu_hu|hu_hu_hu_mus_True|38_68 (ssRNA)
RNA: GGGAGUUCUACAGUCCGACGAUCUCUUUAAAAAAAAAAAAAAAAAGACAAACAAUAAUAGCACAUUAUUUAAAAAAAGAACUACAAUAGAGGGUCCAUGUCUUCGAUUUGUUCACAUCGUCCUGCACUGGGACACGGGGACUGCAACAGAGGAUUGAGCAUCA
B12: 31380325_31381241_1545_CDS_ENSG00000196792_ENST00000355683|human|control|control (ssRNA)
RNA: GGGAGUUCUACAGUCCGACGAUCCUGUUCUCCAUUAGAACUAAUAGCUAAUGACAGAACAGGGCCGAUGUGGGCCCUAAAUGUGUAGAUAGGCUCUACAUCUAAAGAGGCACUCUUUUUGGCAGGAACUGUUUUUUGCAGGUUCAACAGAGGAUUGAGCAUCA
B13: chr16:29586362:29586363:+_ENSMUSG00000038084_ENSMUST00000160597|mus_hu|FALSE|FALSE (ssRNA)
RNA: GGGAGUUCUACAGUCCGACGAUCGCCACCCCCAACAGCCGAUCCUAGUAUGAGAUAGCGAAGUUUUAAGAGUCUCGUAGCUAAUCUUGCUGGCCAAAAAUUCCUGCGAGGCUGGUAGCCAUAUUUAAUUGGAGAGAAUUUCAGCAACAGAGGAUUGAGCAUCA
B14: 134633431_134633551_1114_CDS_ENSMUSG00000042423_ENSMUST00000048896|mouse|control|control (ssRNA)
RNA: GGGAGUUCUACAGUCCGACGAUCCUCAUAGAAGCGUGGUGGCCUGGCCAGGCGUGGGGGCCCUGCCAACCAGGUUGGCUCUGGGAAGCCUGCACAGCGCUCUGGCAGGCUAGGGCCAAGAAAUGGGGGUGGCCGAGGCCUCUCCAACAGAGGAUUGAGCAUCA
B15: chr4:106721038:106721039:+_ENSMUSG00000061887_ENSMUST00000030367|mus_mus|FALSE|FALSE (ssRNA)
RNA: GGGAGUUCUACAGUCCGACGAUCUUUCCUUUUUUUAAAGAAGAAAGCAAAGAGGUUGAUUGGGGUGGGGCAUAGGGCUUGCUAGAAGCUUCCAUUAAAAAAAAAAUUCCCCCAAAGAACACCCCCCACCCCGGGAAAAAAAAACAACAGAGGAUUGAGCAUCA
B16: 36030888_36031168_1329_CDS_ENSG00000197122_ENST00000358208|human|control|control (ssRNA)
RNA: GGGAGUUCUACAGUCCGACGAUCGAUGGGGAAUUUGGCACCUUGCCGCGCCGUGUACUCAUUGUCUUCAAUGAGCCGAGCCAGCCCAAAGUCCGCCACUUUGCACACCAGGUUCUCUCCCACCAGGAUGUUGGCUGCACGAAGCAACAGAGGAUUGAGCAUCA
B17: chr14:68739401:68739402:-_ENSMUSG00000022054_ENSMUST00000022638|mus_hu|FALSE|FALSE (ssRNA)
RNA: GGGAGUUCUACAGUCCGACGAUCUAUUGUGAUUGGGGGUCGGUGUGUAUACAGUGGCCCAGUGAUGCUUCCUGCAAAUGUGCUAAAUCUAGUCUCUUCACCCUCCAGGAGUUUUCUGUACGCAGCGAUUUCUAUAUCCAGAGCCAACAGAGGAUUGAGCAUCA
B18: 119570367_119580680_3109_CDS_ENSMUSG00000030172_ENSMUST00000032279|mouse|control|control (ssRNA)
RNA: GGGAGUUCUACAGUCCGACGAUCGGAGGAUCUGAAGUGGUCAUCCUCAUAGUUGUCAGCCAUUAAUUUCAUUCGAUUUUGUGUCUGCUGUUUGAGCUGCUGCACCAGGCGGUCCUUUUCCCGUUUCAGUGCAGCCACUUCUUCCAACAGAGGAUUGAGCAUCA
B19: chr4:39507275:39507276:-_ENSG00000109814_ENST00000316423|hu_hu|motif|central (ssRNA)
RNA: GGGAGUUCUACAGUCCGACGAUCACUAGAAGAUUCUCUUGUAUCACCAGUGUCCUUUUUGAAUGCAAAUCCCAAAAUAGCGGUCUUCUUAUCAGUUACUGUAUUAAACAGACUAUCUAUGAUCCGGGAAGCAAACCUCCUCCUCAACAGAGGAUUGAGCAUCA
B20: chr14:89307221:89307222:+_ENSG00000165533_ENST00000346301|hu_mus|hu_hu_hu_mus_False|18_38 (ssRNA)
RNA: GGGAGUUCUACAGUCCGACGAUCUCCUGUUUGGUUAGUGCCAGGGAGCUUCAAAGAUGUGCCAGGGCGUGGGACCUGAGCAAUAGCAUUUUCAUCCAGCAUCAUUUCAGCAAUUCCUUCCUGAUCUACAUCAAUUUCAUCUAUCAACAGAGGAUUGAGCAUCA
B21: chr16:94913618:94913619:+_ENSMUSG00000022897_ENSMUST00000122284|mus_mus|FALSE|FALSE (ssRNA)
RNA: GGGAGUUCUACAGUCCGACGAUCAGUCAUGUAAUGUGCAGGACCUGUAUUAGCAGAAAAUUGGUAUGUUGGAUGUCCAGCUAUGCCAGUCUCUUGGCGGGGAUUGGAGUAGACGGUCAAAUUAACGUCCAUAGCUCCAUUCUGCAACAGAGGAUUGAGCAUCA
B22: chr3:119450855:119450856:-_ENSMUSG00000028134_ENSMUST00000029780|mus_hu|mus_mus_mus_hu_False|48_98 (ssRNA)
RNA: GGGAGUUCUACAGUCCGACGAUCUGUGGUGCCACUAAGAGGUGUAUUUGCUGUCUGGACAGCUGUCACAGCUUGAAGAACUGCCUGCGCACGUUGGUUUAAUGUAUUAUCUGUCUUUAGUUCUUUGUGAUUCGAGUACUGGAUCAACAGAGGAUUGAGCAUCA

Target: T1, UNK ZnF1-3 (human, UniProt Q9C0B0 31-174)
T1 sequence: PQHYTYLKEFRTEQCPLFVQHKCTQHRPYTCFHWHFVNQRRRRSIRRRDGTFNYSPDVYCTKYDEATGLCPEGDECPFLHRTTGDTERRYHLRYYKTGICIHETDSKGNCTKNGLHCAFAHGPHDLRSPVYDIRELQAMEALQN
Assay: nsRBNS (natural sequence RNA bind-n-seq); RBNS binding buffer (assumed for nsRBNS): 25 mM Tris pH 7.5, 150 mM KCl, 3 mM MgCl2, 0.01% Triton X-100, 500 ug/ml BSA, 20 U/ml SUPERase-In, 4 C; UNK is unkempt and MSI1 is Musashi-1; names of the RNAs are library labels; protein concentration not given here; high values mean tight binding

Binder | binding signal [enrichment R]
B1 | 0.495
B2 | 0.652
B3 | 0.935
B4 | 1.24
B5 | 0.695
B6 | 1.23
B7 | 0.46
B8 | 1.19
B9 | 0.637
B10 | 0.698
B11 | 2.71
B12 | 1.03
B13 | 1.52
B14 | 0.637
B15 | 1.42
B16 | 1.01
B17 | 0.959
B18 | 0.424
B19 | 1.08
B20 | 1.06
B21 | 1.49
B22 | 0.65
